Results: PubChem BioAssay AID720709 (National Center for Advancing Translational Sciences (NCATS), 2013)
Out of some 360,000 compounds screened, about 520 (0.14%) were called active. Inconclusive means that the source gave no clear call. Such entries were picked first, then a sample of the others. Calls follow the shape of the dose curve; as a rule, active = well fitted inhibition curve with a large enough effect; inconclusive = small, poorly fitted or top-dose-only effect; inactive = no such curve, though single readings can be large or run the other way. A potency beside an inconclusive call is a rough fit, not a confirmed value.

What follows are compounds tested against Rap guanine nucleotide exchange factor 3 (Homo sapiens) (UniProt O95398) (assay: qHTS for Antagonist of cAMP-regulated guanine nucleotide exchange factor 3 (EPAC1): primary screen). Conditions: EPAC1 GEF assay, Rap1b-BODIPY-GDP exchange fluorescence; activity change, negative = inhibition: at 115 µM (top of the series).
Also: nearly all actives have a fitted effect of over 50% in size.
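For activity change, negative = inhibition in this document: plate controls were vehicle for no effect and positive control for full effect.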
Potency is read from the fitted curve at half-maximal effect; tags tell the direction and shape of the fitted curve.

UniProt O95398, sequence (O95398 whole entry, looked up): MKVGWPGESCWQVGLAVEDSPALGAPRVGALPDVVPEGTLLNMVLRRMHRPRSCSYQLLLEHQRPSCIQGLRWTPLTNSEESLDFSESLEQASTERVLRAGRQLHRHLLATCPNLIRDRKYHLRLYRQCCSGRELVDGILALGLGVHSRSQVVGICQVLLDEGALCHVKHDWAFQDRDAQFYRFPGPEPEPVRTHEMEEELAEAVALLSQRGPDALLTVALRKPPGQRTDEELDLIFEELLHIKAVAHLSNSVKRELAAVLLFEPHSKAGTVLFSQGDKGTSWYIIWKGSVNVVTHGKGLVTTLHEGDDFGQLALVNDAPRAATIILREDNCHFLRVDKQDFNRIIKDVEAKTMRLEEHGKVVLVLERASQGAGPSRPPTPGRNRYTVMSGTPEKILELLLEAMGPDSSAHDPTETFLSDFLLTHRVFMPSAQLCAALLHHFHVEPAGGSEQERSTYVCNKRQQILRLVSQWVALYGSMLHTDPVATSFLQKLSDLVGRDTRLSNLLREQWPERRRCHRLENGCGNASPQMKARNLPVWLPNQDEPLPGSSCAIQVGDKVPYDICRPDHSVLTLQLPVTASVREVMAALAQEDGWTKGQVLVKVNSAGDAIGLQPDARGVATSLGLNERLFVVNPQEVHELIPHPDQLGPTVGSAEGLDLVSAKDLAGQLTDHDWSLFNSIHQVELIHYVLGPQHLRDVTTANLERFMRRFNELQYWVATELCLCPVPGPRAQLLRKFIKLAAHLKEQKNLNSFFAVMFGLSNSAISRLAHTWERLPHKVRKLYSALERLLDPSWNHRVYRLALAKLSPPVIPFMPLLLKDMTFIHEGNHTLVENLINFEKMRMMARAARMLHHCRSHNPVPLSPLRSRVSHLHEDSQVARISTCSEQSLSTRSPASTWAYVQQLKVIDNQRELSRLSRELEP

Potency, inconclusive:
COC(=O)c1cccc(NC(=O)CN2C(=O)c3ccccc3C2=O)c1 8.91 µM [inhibitor, full curve, poor fit], Cn1nc(-c2ccccc2)c(CO)c1Oc1ccc(F)cc1 6.31 µM [inhibitor, full curve], COCCCNC(=O)c1ccc2c3c(onc13)-c1ccccc1C2=O 50.1 µM [inhibitor, partial curve], CN1CC(=O)N(CC(=O)Nc2ccc(N3CCOCC3)cc2)C1=O 2.82 µM [inhibitor, full curve, poor fit], CSc1cccc(N2CC(C(=O)N(Cc3nnc(-c4ccccc4Cl)o3)C3CC3)CC2=O)c1 (centres undefined) 3.55 µM [inhibitor, full curve, poor fit], N#C/C(=N\Nc1cccc(C(F)(F)F)c1)C(=O)c1ccsc1 89.1 µM [inhibitor, single point], CCn1ncc(Br)c1C(=O)Nc1ccc(C(=O)OC(C)C)cc1 63.1 µM [inhibitor, partial curve, poor fit], Cc1ccc(-c2nc(N)n(S(=O)(=O)c3ccc(C)cc3)n2)cc1 100 µM [inhibitor, single point], C/C(N)=C(/C#N)C(=O)CSc1nnc(Nc2ccccc2C)s1 2.82 µM [inhibitor, full curve, poor fit], Cc1ccc(-n2nnnc2SCC(=O)N2CCNC2=O)cc1C 3.55 µM [inhibitor, full curve, poor fit], S=c1[nH]nc(-c2cc(-c3ccccc3)n[nH]2)n1/N=C/C(Br)=C/c1ccccc1 56.2 µM [inhibitor, partial curve, poor fit], CCOC(=O)c1cc([N+](=O)[O-])c([N+](=O)[O-])cc1NC(C)=O 50.1 µM [inhibitor, partial curve], O=C(COC(=O)c1cccc(NS(=O)(=O)c2ccc(F)c(F)c2)c1)NC(=O)NC1CCCC1 56.2 µM [inhibitor, partial curve, poor fit], Cc1ccc2oc(=O)c3cc(C(=O)NCCCN4CCCCCC4)sc3c2c1 10 µM [inhibitor, full curve], Cc1cccn2cc(CCNC(=O)c3ccco3)nc12 35.5 µM [inhibitor, single point], CN1C(=O)/C(=C\c2ccco2)N=C1c1ccc(Cl)cc1Cl 39.8 µM [inhibitor, single point], O=C(Nc1ccc(S(=O)(=O)Nc2ncccn2)cc1)c1ccccc1NS(=O)(=O)c1ccc(Cl)cc1 89.1 µM [inhibitor, single point], N=C1S/C(=C\c2ccco2)C(=O)N1c1ccc2c(c1)OCO2 79.4 µM [inhibitor, single point], Cc1ccnc(N2CCC(C(=O)Nc3ccc4c(c3)OCO4)CC2)n1 79.4 µM [inhibitor, partial curve], Cc1cccc(Nc2nc(N)c([N+](=O)[O-])c(N3CCCC(C)C3)n2)c1 (centres undefined) 50.1 µM [inhibitor, partial curve, poor fit], Cc1cc(C)c(C#N)c(N2CCN(S(=O)(=O)Cc3ccccc3)CC2)n1 79.4 µM [inhibitor, partial curve], COc1ccccc1C(=O)N/N=C(\C)CC(=O)Nc1ccccn1 3.55 µM [inhibitor, full curve, poor fit], Cc1nn(-c2ccccc2)c(N2CCCC2)c1/C=N/Nc1ccc(S(=O)(=O)Nc2ccccc2)cc1[N+](=O)[O-] 25.1 µM [inhibitor, single point], CCN1CCC(O)(/C=C/c2ccc(C)cc2)C(C(=O)/C=C/c2ccc(C)cc2)C1 (centres undefined) 50.1 µM [inhibitor, partial curve], c1ccc(Cn2ncc3c(N4CCN(c5ccccc5)CC4)ncnc32)cc1 10 µM [inhibitor, partial curve], O=C(Nc1nccs1)C1CCCN1/C=C/C(=O)C(F)(F)F (centres undefined) 10 µM [inhibitor, partial curve], CCc1nnc(NC(=O)CSc2nnc(-c3ccc(NS(=O)(=O)c4ccccc4)cc3)o2)s1 89.1 µM [inhibitor, single point], O=S(=O)(Nc1ccc(O)c(Sc2nc3ccccc3s2)c1)c1ccc(Cl)cc1 112 µM [inhibitor, partial curve, poor fit], O=c1c2ccccc2c(-c2ccc(O)cc2)nn1-c1cccc(C(F)(F)F)c1 56.2 µM [inhibitor, partial curve], COc1ccc(-c2cnn3c(N)c(S(=O)(=O)C(C)(C)C)cnc23)cc1 100 µM [inhibitor, single point], O=C(N/N=C/C(Cl)=C/c1ccc([N+](=O)[O-])cc1)C(=O)Nc1ccccc1C(=O)O 15.8 µM [inhibitor, full curve], CCCCOc1ccc(/C=C/C(=O)OCC(=O)NC(=O)NCC(C)C)cc1OCC 89.1 µM [inhibitor, single point], O=C(CC1SC(=Nc2cccc3ccccc23)N(Cc2ccccn2)C1=O)Nc1ccccc1Br (centres undefined) 2.82 µM [inhibitor, full curve, poor fit], Cn1c(CCNC(=O)c2ccco2)nc2cc(NC(=O)c3ccccc3)ccc21 50.1 µM [inhibitor, partial curve], COCCNC(=O)c1n[nH]c2ccccc12 2.82 µM [inhibitor, full curve, poor fit], CCOC(=O)/C(=C/c1c(C)n(C)c2ccc([N+](=O)[O-])cc12)C(C)=O 56.2 µM [inhibitor, partial curve], COc1ccccc1CN1CCNC(=O)C1CC(=O)NCCc1cnccn1 (centres undefined) 39.8 µM [inhibitor, partial curve], Cc1nc(SC2C=CS(=O)(=O)C2)n[nH]1 (centres undefined) 7.08 µM [inhibitor, full curve, poor fit]

Potency, active:
N#Cc1c(-c2ccccc2)nc(SCc2cccc(C(F)(F)F)c2)[nH]c1=O 70.8 µM, Nc1c(C(=O)NCC2CCCO2)sc2nc3c(c(-c4ccco4)c12)CC/C3=C\c1ccco1 (centres undefined) 20 µM

Activity change, negative = inhibition, inconclusive:
O=C(NCc1ccccn1)C1CCCN(S(=O)(=O)c2cc(Cl)ccc2Cl)C1 (centres undefined) -1.61% [inhibitor]

Activity change, negative = inhibition, inactive:
CC(C)(C)[C@H]1CCC(=O)N([C@H](CSc2ccccc2)Cc2ccccc2)CC1 -5.95%, CC(C)c1ccc(/C=C/C(=O)NC(=S)Nc2ccc(CN3CCOCC3)cc2)cc1 -28.6%, Cc1cc(/C=C2\C(=N)N3C(SCc4ccccc4)=NSC3=NC2=O)c(C)n1Cc1ccccc1 2.55%, Cc1ccc(C)c(C(O)c2ncc(-c3cccc(F)c3)[nH]2)c1 (centres undefined) -20.5%, C#CCOCCOCCOCCNc1nc(N2CCN(C(=O)[C@H](CC(N)=O)n3cc(C(N)[C@H](C)CC)nn3)CC2)nc(N2CCN(C(=O)[C@H](CC(N)=O)n3cc(C(N)[C@@H](C)CC)nn3)CC2)n1 (some centres undefined) 4.54%, O=c1[nH]c(/C=C/c2ccccc2F)nc2ccccc12 -3.99%, Cc1ccc(C(=O)NCCCNc2ccc(C(F)(F)F)cc2[N+](=O)[O-])cc1 -9.84%, Cc1nnc(-c2cnn(C)c2N)n1Cc1ccc(Cl)cc1 1.17%, N#Cc1ccccc1CSC1=NCCS1 -3.9%, O=C(CSc1nccc(=O)[nH]1)NCc1ccco1 -12.2%, COC(=O)C[C@@H]1C=C[C@@H](NC(=O)c2cccnc2)[C@@H](CO)O1 -6.55%, C=C(CN(C)C)C(=O)c1ccc2c(c1)OCO2 -5.77%, COc1ccc(CNC(=O)c2sc(=O)n(Cc3ccccc3OC)c2C)cc1 -17.8%, COc1ccc(NC(=O)c2nc(S(=O)(=O)Cc3cccc(C)c3)ncc2Cl)c(OC)c1 -15.1%, Cc1cccc(C)c1NC(=O)CNC(=O)c1ccc(NS(=O)(=O)c2ccc3[nH]c(=O)[nH]c3c2)cc1 -16.6%, Fc1cccc(-c2csc(-c3ccno3)n2)c1 9.21%, COc1ccc(CC(=O)NNc2ncnc3c2cnn3-c2ccccc2)cc1 -4.85%, C[C@H](CO)N1C[C@H](C)[C@@H](CN(C)C(=O)c2ccc3ccn(C)c3c2)OCc2cn(nn2)CCCC1=O 9.85%, CC(C)(C)NC(=O)C(c1ccnc2ccccc12)n1c(=O)c(-c2cc3ccccc3[nH]2)nc2ccccc21 (centres undefined) 18%, CN1C(=O)/C(=C\C=C2/CCCN2C)N(C)C1=S 5.58%, CCOC(=O)c1c(NC(=O)C2c3ccccc3Oc3ccccc32)sc(C(=O)N(CC)CC)c1C 4.69%, CC1(C)O[C@H]2CC(=O)OC[C@@]23C1CC(=O)[C@]1(C)C3CC[C@@]2(C)[C@H](c3ccoc3)OC(=O)[C@H]3O[C@]321 (some centres undefined) -2.91%, O=C(Nc1ccc(Cl)cc1)c1cc2c(cc1O)[nH]c1ccccc12 -10.2%, CCCCOc1ccc(Br)cc1/C(C)=N/NC1=NCCN1 -5.3%, O=C(NCc1ccccc1Cl)C1CCN(C(=O)c2ccco2)CC1 1.73%, CN(C)c1ccc2cc(S(=O)(=O)O)cc(O)c2c1 -19.2%, CN(C)CCC(=O)N1C/C(=C/c2ccccc2)C(=O)/C(=C\c2ccccc2)C1 -11.4%, COc1ccc(-n2c(=S)[nH]c3[nH]ncc3c2=O)cc1 13.1%
